According to publication PMC4336329 (PLoS ONE, 2015):
About 2,200 (0.71%) of roughly 310,000 compounds showed an effect of 50% or more. Effects have a minus sign here. This is one part of the list.

Each compound was assayed against human ether-à-go-go-related gene (hERG) potassium channel (human, UniProt Q12809) (assay: primary screen, population patch clamp on CHO cells stably expressing hERG).
human ether-à-go-go-related gene (hERG) potassium channel, sequence (Q12809 whole entry, looked up): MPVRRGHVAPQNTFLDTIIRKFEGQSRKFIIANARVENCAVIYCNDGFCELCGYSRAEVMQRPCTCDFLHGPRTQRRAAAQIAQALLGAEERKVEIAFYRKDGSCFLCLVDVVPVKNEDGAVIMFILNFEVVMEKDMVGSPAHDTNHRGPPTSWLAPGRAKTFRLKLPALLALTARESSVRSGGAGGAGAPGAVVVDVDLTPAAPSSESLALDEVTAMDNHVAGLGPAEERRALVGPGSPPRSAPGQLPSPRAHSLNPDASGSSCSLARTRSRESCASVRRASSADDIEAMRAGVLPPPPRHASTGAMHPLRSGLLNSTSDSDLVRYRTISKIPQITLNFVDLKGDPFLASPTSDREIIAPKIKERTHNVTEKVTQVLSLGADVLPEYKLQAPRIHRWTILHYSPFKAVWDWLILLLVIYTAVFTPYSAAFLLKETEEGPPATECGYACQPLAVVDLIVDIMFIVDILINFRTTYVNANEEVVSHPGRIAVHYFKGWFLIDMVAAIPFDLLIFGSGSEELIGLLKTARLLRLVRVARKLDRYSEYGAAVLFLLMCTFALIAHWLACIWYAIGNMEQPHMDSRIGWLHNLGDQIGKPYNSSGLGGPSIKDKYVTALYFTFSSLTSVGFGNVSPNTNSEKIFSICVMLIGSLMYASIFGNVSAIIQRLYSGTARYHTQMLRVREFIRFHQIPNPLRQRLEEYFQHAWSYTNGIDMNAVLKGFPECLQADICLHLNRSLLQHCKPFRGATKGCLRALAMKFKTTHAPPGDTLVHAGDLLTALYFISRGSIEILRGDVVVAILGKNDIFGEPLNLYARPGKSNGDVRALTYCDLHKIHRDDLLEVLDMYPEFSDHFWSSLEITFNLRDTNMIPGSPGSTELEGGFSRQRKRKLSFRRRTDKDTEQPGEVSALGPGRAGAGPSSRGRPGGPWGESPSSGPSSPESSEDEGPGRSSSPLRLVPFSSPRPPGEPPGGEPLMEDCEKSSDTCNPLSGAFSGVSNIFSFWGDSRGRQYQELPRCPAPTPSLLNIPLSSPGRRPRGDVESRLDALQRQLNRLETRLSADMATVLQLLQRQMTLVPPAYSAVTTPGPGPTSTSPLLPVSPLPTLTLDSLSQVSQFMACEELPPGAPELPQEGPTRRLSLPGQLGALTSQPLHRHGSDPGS

| Compound | hERG current change (%, negative = inhibition) at 1uM |
| --- | --- |
| COc1ccc(-c2n[nH]c3c2CN(C(=O)c2ccccc2)CC3)cc1 | 7.54% |
| CC1CC(NC(=O)N(C)C)N(C)C(=O)N1 (stereo not drawn) | 6.47% |
| COc1ccc(NS(=O)(=O)c2ccc3c(c2)oc(=O)n3C)c(OC)c1 | 6.32% |
| CCOc1c(Br)cc(C(=O)N2CCCN(C)CC2)cc1OC.Cl | 15.8% |
| CCOc1ccc(NC(=S)N2CCCCCC2)cc1 | 0.404% |
| Cc1cc(C)n(C2CC(=O)N(c3ccccc3)C2=O)n1 (stereo not drawn) | 6.48% |
| Cc1ccc(OCCN2CCCC2)cc1.O=C(O)C(=O)O | 7.22% |
| Cc1cc(C)c(OCC(=O)Nc2ccccc2N2CCCCC2)c(C)c1 | 11.9% |
| Cn1[nH]c(=O)c2ccccc2c1=O | 3.95% |
| CCCCN(C)CCNS(=O)(=O)c1ccc2c(c1)n(C)c(=O)c(=O)n2C | 11.8% |
| O=C(CCc1nc2ccccc2c(=O)[nH]1)Nc1cc(Cl)ccc1N1CCCCC1 | -0.403% |
| CCOc1ccc(CCNC(=O)CCc2nnc3ccc(N4CCOCC4)nn23)cc1 | -0.207% |
| N=C1C(c2nc3ccccc3[nH]2)=C(O)CN1NC(=O)COc1cccc(F)c1 | 3.17% |
| O=C(NCc1ccco1)c1ccc(NC(=O)C2COc3ccccc3O2)cc1 (stereo not drawn) | 9.03% |
| CC12CN3CCN(CC(C3)/C1=N\NC(=O)Nc1cccc(Cl)c1)C2 | 11% |
| O=S(=O)(Nc1ncccn1)c1ccc(Nc2ncnc3ccccc23)cc1 | -8.91% |
| CCc1ccc(NC(=O)c2ccc(S(=O)(=O)NCc3cccnc3)cc2)cc1 | 9.34% |
| CCOc1cc(/C=N/NC(=O)C(=O)NC)cc(Br)c1O | 14.8% |
| COC(=O)c1csc(S(=O)(=O)N2CCOCC2)c1OC | 17.2% |
| Cc1c(C)n(CC(O)CN2CCOCC2)c2ccccc12.O=C(O)C(=O)O (stereo not drawn) | -2.16% |
| COc1ccc(OCc2cc(C(=O)N3CCCC(O)C3)no2)c2ccccc12 (stereo not drawn) | 4.89% |
| Nc1nnc(SCCCC(=O)c2ccccc2)s1 | 5.23% |
| C/C(=N\N=C(/N)SC1CC(=O)N(c2ccc(Cl)c(Cl)c2)C1=O)c1cccs1 (stereo not drawn) | 12.3% |

| Compound | hERG current change (%, negative = inhibition) at 1uM |
| --- | --- |
| COc1ccc(-n2cc(-c3ccccc3)c3c(N4CC(C)OC(C)C4)ncnc32)cc1 (stereo not drawn) | 13.7% |
| CS(=O)(=O)N(CC(=O)N1CCOCC1)c1ccccc1 | 15.4% |
| CC(Oc1ccc2c(-c3ccccc3)cc(=O)oc2c1)C(=O)NC(Cc1c[nH]c2ccc(O)cc12)C(=O)O (stereo not drawn) | 12.1% |
| Cc1ccc2nc(NC(=O)C3CCCN(S(=O)(=O)c4cccnc4)C3)sc2c1 (stereo not drawn) | 7.66% |
| O=C(c1cnn2ccccc12)N1CCN(C2CCCCC2)CC1 | 3.68% |
| O=c1cc(O)c(-c2ccccc2)c(Cl)[nH]1 | 11.9% |
| CC(=O)C(Cc1ccc(Cl)nc1)Cc1ccc(Cl)nc1 | 8.48% |
| Fc1ccccc1C1c2cccn2CCN1C(=S)Nc1ccc(Br)cc1 (stereo not drawn) | 12.6% |
| Cc1cccc(OCCOCCSc2ncccn2)c1 | -3.25% |
| COC(=O)Cn1c2[n+](c3ccccc31)CC(O)CS2.[Br-] (stereo not drawn) | 12.3% |
| Cc1cccc(Nc2nc(-c3ccc4c(c3)OCCO4)cs2)c1 | 0.816% |
| CC1=CC(C)(C)N=C(Nc2ccc(C)cc2)S1 | 9.59% |
| O=C(CCn1c(=S)[nH]c2ccccc2c1=O)NCCSCc1ccccc1 | 11.3% |
| CCCCNC(=O)CS(=O)Cc1nc(-c2ccc(C)cc2)oc1C (stereo not drawn) | 1.1% |
| COc1cc(/C=N/NC(=O)c2cccc3ccccc23)cc(OC)c1O | 13.8% |
| COc1cc(C(=O)Nc2nnc(CC(C)C)s2)c([N+](=O)[O-])cc1OC | 14% |
| COC(=O)c1cc(OC)c(OC)cc1NC(=O)c1cc(C(C)(C)C)oc1C | 7.4% |
| O=C(NC1CCN(Cc2ccccc2)CC1)c1c(Cl)cccc1Cl | 5.18% |
| Cc1c(CCC(=O)O)c(=O)oc2cc(OCc3ccccc3Br)ccc12 | 13.5% |
| Cc1ccc2c(c1)NC(=O)C(CC(=O)NCc1cccnc1)O2 (stereo not drawn) | 2.51% |
| O=c1c2ccccc2nc2n1CCS2 | 3.12% |
| Cc1ccsc1C(=O)NC1CCCN(Cc2ccc(Cl)cc2)C1 (stereo not drawn) | 7.38% |
| CCc1cccc2c1NC1(CCCC1)CC2C.Cl (stereo not drawn) | 15.7% |

| Compound | hERG current change (%, negative = inhibition) at 1uM |
| --- | --- |
| Cc1cc2ncn(N)c2cc1C | -8.07% |
| c1ccc(COC2CCCN(Cc3nc(-c4cnccn4)no3)C2)nc1 (stereo not drawn) | 5.9% |
| COC(=O)c1ccc(-c2ccco2)n1Cc1ccccc1Cl | 2.96% |
| CCOC(=O)c1nnc(-c2ccc(C)cc2)nc1Oc1ccc(Cl)cc1Cl | 4.36% |
| O=C(CNC(c1ccccc1)c1ccccc1)Nc1ccc(F)cc1 | 3.51% |
| Cc1ccc2c(c1)C(c1ccncc1)=NNC(c1ccccc1)=N2 | 12.7% |
| Cc1ccccc1/C=N/N1CCN(c2ccccc2)CC1 | 0.997% |
| Nc1nc(CN2CCC(Cc3ccccc3)CC2)nc(Nc2ccccc2)n1 | -87.4% |
| COCCN(C(=O)c1cc(OC)c(OC)c(OC)c1)c1c(N)n(Cc2ccccc2)c(=O)[nH]c1=O | 21.4% |
| Cc1nc2c(cc(Oc3ccc(S(=O)(=O)N4CCOCC4)cn3)c3ccsc32)s1 | 5.91% |
| CCC(C)(C)n1nnnc1C(c1ccc2ncccc2c1)N1CCCC(C)C1 (stereo not drawn) | 6.04% |
| Cc1ccc(S(=O)(=O)Nc2cc(=O)[nH]c(SCc3ccccc3Cl)n2)cc1 | 11.4% |
| Cc1ccc(C(=O)Oc2ccc(Br)cc2C(=S)N2CCOCC2)cc1 | 9.3% |
| CCN(CC)CCCN(C(=O)c1ccc(F)cc1)c1nc(-c2ccc(OC)cc2)cs1 | -26.4% |
| CCNC(=O)c1ccccc1NC(=O)c1cccc(S(=O)(=O)N2CCC(C)CC2)c1 | -5.74% |
| CCOC(=O)C1(CCCc2ccccc2)CCN(C(=O)c2cc(C)nn2CC)CC1 | -7.65% |
| Cc1ccc(C)c(S(=O)(=O)N2CCCOC2CNC(=O)C(=O)NC2CCCC2)c1 (stereo not drawn) | 9.86% |
| CCCn1c(SCC(=O)N2CCN(c3ccc(OC)cc3)CC2)nc2c1c(=O)n(C)c(=O)n2C | -19.1% |
| COc1ccc(NC(=O)C23CC4CC(C2)CC(c2ccccc2)(C4)C3)c(OC)c1 | 5.92% |
| COc1ccc([N+](=O)[O-])cc1NS(=O)(=O)Cc1ccccc1 | 11% |
| COCCNC(=O)CSCc1c(F)cccc1Cl | 10.7% |
| CNC(=O)Cn1c(C)cc(=O)c2cccc(C)c21 | 0.817% |
| Cc1cc(NC(=O)c2ccc(S(=O)(=O)N(C)C)cc2)n(-c2ccccn2)n1 | 0.686% |

| Compound | hERG current change (%, negative = inhibition) at 1uM |
| --- | --- |
| O=C(COc1ccccc1Br)Nc1ccc2c(c1)OCCCO2 | 15.2% |
| Cc1ccc(NC(=S)N2CCN(S(C)(=O)=O)CC2)cc1Cl | 14.3% |
| CC1(C)CC(CC(=O)O)(c2ccc(Cl)cc2)CCO1 (stereo not drawn) | 5.39% |
| O=C1NC(=Nc2ccc3ccccc3c2)S/C1=C/c1ccco1 | 9.44% |
| Cn1cnc([N+](=O)[O-])c1Oc1cccc(O)c1 | 13.1% |
| CC(=O)NC(CC(=O)Nc1nccs1)c1ccccc1.O=C(O)C(=O)O (stereo not drawn) | 2.59% |
| Cc1cc(C)cc(C(=O)N2CCC(CCC(=O)NC3CC3)CC2)c1 | 0.276% |
| COc1ccc(NCCc2ccccn2)cc1.Cl | 11.6% |
| COc1ccc(C(=O)Nc2cccc(S(C)(=O)=O)c2)cc1OC | 14.2% |
| CCOC(=O)C(CC)n1cnc2sc3c(c2c1=O)CCC3 (stereo not drawn) | 13.5% |
| CCOC(=O)c1nnn(-c2nonc2N)c1COc1ccccc1 | 12.6% |
| COc1ccc(CN(Cc2cccn2C)S(=O)(=O)c2cccc(C(F)(F)F)c2)cc1 | 11.8% |
| C/C(=N\NC(=O)c1ccn(C)n1)c1ccc(NC(=O)c2cccc(F)c2)cc1 | 10.2% |
| COc1ccc(OC)c(S(=O)(=O)N2c3ccccc3CC2C)c1 (stereo not drawn) | 10.9% |
| COc1ccc(NC2CC(=O)N(c3cc([N+](=O)[O-])ccc3C)C2=O)cc1 (stereo not drawn) | 1.81% |
| CCO[C@H]1OC(C(=O)N2CCN(Cc3ccccc3)CC2)=C[C@@H](c2coc3ccccc3c2=O)[C@@H]1CCCO | 6.14% |
| CCOC(=O)N1CCN(S(=O)(=O)c2ccc3c(c2)oc(=O)n3C)CC1 | 11.8% |
| COc1cc(O)ccc1/C=N/NC(=O)c1ccc([N+](=O)[O-])cc1 | 7.63% |
| Cc1cc(OCC(=O)OC(C)(C)C)c2c3c(c(=O)oc2c1)CCC3 | 9.43% |
| COC(=O)CCCC1=CC2=CC(=O)C(C)(OC(=O)C3CCCC3)C(=O)C2=CO1 (stereo not drawn) | 15.1% |
| O=C(CN1C(=O)/C(=C/c2ccccc2F)Sc2ccccc21)N1CCN(c2ccccn2)CC1 | 12.8% |
